# Among all 130,000 compounds or so, about 550 (0.42%) were called active. Not shown: some 4% with an inconclusive outcome. The call rests on the fitted dose curve; in most records, active means well fitted inhibition curve with a large enough effect; inconclusive means small, poorly fitted or top-dose-only effect, or effect the other way; inactive means flat fitted curve, though single readings scatter. Only a part is listed here, and it is no random draw.
# Assay: qHTS Assay for Inhibitors of the ERK Signaling Pathway using a Homogeneous Screening Assay; Stimulation with EGF; further: nearly all actives have a fitted effect of over 55% in size;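 on activity change, negative = inhibition: plate controls were stimulated vehicle wells for no effect and unstimulated vehicle basal for full effect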
# Conditions: HEK293-V1b, EGF-stimulated phospho-ERK AlphaScreen; activity change, negative = inhibition: at the top concentration
# Outline: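 HEK293 cells stably expressing V1b receptor, serum-reduced (1% FBS) overnight, pretreated 30 min with compound, then stimulated 5 min with 25 nM EGF; phospho-ERK detected by AlphaScreen SureFire. AC50 from Hill fits, normalized to DMSO and EGF.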
# Potency means the concentration at half of the fitted maximal effect.
Structure (SMILES),Potency,"activity change, negative = inhibition"
CC(C)Oc1ccccc1/C=N/Nc1ccccc1[N+](=O)[O-],active: 12.6 µM,
CC[C@H](C)C(=O)O[C@H]1CCC=C2C=C[C@H](C)[C@H](CC[C@@H]3C[C@@H](O)CC(=O)O3)[C@H]21,,inactive: -4.09%
O=C1c2ccccc2C(=O)c2c1ccc(O)c2O,,inactive: 4.89%
CN1CCN(CCCN2c3ccccc3Sc3ccc(Cl)cc32)CC1,inactive,
CN1C=CC=C/C1=C1/SC(=S)N(Cc2ccccc2)C1=O,,inactive: 23.1%
COc1ccccc1CC(Cc1nc2ccccc2[nH]1)c1nc2ccccc2[nH]1 (stereo not drawn),,inactive: -2.54%
Oc1cc2c(cc1O)[C@H](c1ccccc1)CNCC2,,inactive: 5.94%
COc1ccc(C2CNC(=O)C2)cc1OC1CCCC1 (stereo not drawn),inactive,
CC(C)(C)[C@H]1C=C(C(=O)N2CCN(Cc3ccccc3)CC2)O[C@@H](OCc2ccc(CO)cc2)C1,,inactive: -3.05% [at 57.5 µM]
CCOC(=O)C1=C(C)NC(C)=C(C(=O)OC)[C@H]1c1cccc([N+](=O)[O-])c1,,inactive: -5.87%
CC(C)(C=O)Cc1cc(C(C)(C)C)c(O)c(C(C)(C)C)c1,,inactive: 6.49%
COc1c(-c2coc3cc4c(cc3c2=O)CC(O)C(C)(C)O4)ccc2c1C=CC(C)(C)O2 (stereo not drawn),active: 12.6 µM,
CCCN1C(=O)/C(=C/c2nc3ccccc3c(=O)[nH]2)c2ccccc21,,inactive: 2.99%
Cc1[nH]n(-c2ccccc2)c(=O)c1N=Nc1ccccc1,active: 15.8 µM,
COc1ccc([C@@H]2CC(=O)c3c(O)cc(O)cc3O2)cc1O,,inactive: 5.47%
CCN(CC)CCOC(=O)C1(C2CCCCC2)CCCCC1,inactive,
Oc1cc(O)c2c(c1)O[C@H](c1ccc(O)c(O)c1)[C@@H](O)C2,inactive,
CCN1C(=O)/C(=C\C=C2/C=CC=CN2CC)SC1=S,active: 25.1 µM,
CCOc1cc(/C=N/N=C(N)N)ccc1OCc1ccc(Cl)cc1,active: 31.6 µM,
O=C(CCCN1C(=O)/C(=C\c2ccccc2)SC1=S)Nc1ccc(O)cc1,,inactive: 6.37%
CN(/N=C/c1ccc([N+](=O)[O-])o1)c1ccccc1,active: 25.1 µM,
O=C1c2ccccc2C(=O)C1c1ccccc1,inactive,
O=C(O)CCc1nc(-c2ccccc2)c(-c2ccccc2)o1,inactive,
CCOc1ccc2[nH]c3c(N4CCc5ccccc5C4)ncnc3c2c1,active: 31.6 µM,

Structure (SMILES),Potency,"activity change, negative = inhibition"
CCCCCCCCCCCCCCCC(=O)O[C@H](CC(=O)O)C[N+](C)(C)C,,inactive: 2.12%
O=C(NN1C(=O)C2C3c4ccccc4C(c4ccccc43)[C@@H]2C1=O)c1ccccc1 (stereo partly drawn),,inactive: 1.52%
Cc1ccc(N=CC2=C(O)CC(c3ccccc3Cl)CC2=O)cc1 (stereo not drawn),active: 20 µM,
CCOC(=O)Nc1ccc2c(c1)N(C(=O)CCN1CCOCC1)c1ccccc1S2,,inactive: -8.6% [at 25.7 µM]
CN(C)c1ccc(N=Nc2ccccc2C(=O)OCC(=O)NCC2CCCCC2)cc1,active: 12.6 µM,
COc1ccc(-c2cc(C(F)F)n3ncc(C(=O)Nc4cc(C)on4)c3n2)cc1,active: 28.2 µM,
CC(C)[C@H](NC(=O)c1ccccc1)C(=O)OCc1nc2scc(-c3ccccc3)c2c(=O)[nH]1,active: 35.5 µM,
CC1=C(C)C(=O)C(CCCCC#CCCCC#CCO)=C(C)C1=O,,inactive: 8.13%
COc1ccc([C@@H]2CNC(=O)C2)cc1OC1CCCC1,inactive,
Nc1ncnc2c1ncn2C1OC(CO)C(O)C1O (stereo not drawn),inactive,
CC#C[C@@]1(O)CC[C@H]2[C@@H]3CCC4=CC(=O)CCC4=C3[C@H](c3ccc(N(C)C)cc3)C[C@]21C,,inactive: 8.13% [at 25.7 µM]
COc1cc(OC)c2c(=O)c(OC)c(-c3ccc(OC)c(OC)c3)oc2c1,,inactive: 26.1%
Nc1nc(Cl)nc2c1ncn2[C@@H]1O[C@H](CO)[C@H](O)[C@H]1O,,inactive: 16.2%
COC(=O)[C@@]1(Cc2ccc(F)cc2)[C@H]2c3cc(C(=O)N4CCCC4)n(CCc4ccc(O)c(O)c4)c3C[C@H]2CN1C(=O)c1ccccc1,,inactive: 1.89%
COC1C=CO[C@@]2(C)Oc3c(C)c(O)c4c(O)c(c5c(nc6cc(C)ccn65)c4c3C2=O)NC(=O)/C(C)=C\C=CC(C)C(O)[C@@H](C)C(O)C(C)[C@@H](OC(C)=O)C1C (stereo partly drawn),,inactive: 20.3%
Oc1ccc(Nc2ncnc3scc(-c4ccccc4)c23)cc1,active: 22.4 µM,
CCO[C@H]1OC(C(=O)O)=C[C@@H](C2CC2)[C@@H]1CCCO,,inactive: -9.04% [at 57.5 µM]
CC1=C(/C=C/C(C)=C/C=C/C(C)=C/C(=O)Nc2ccc(O)cc2)C(C)(C)CCC1,inactive,
CSC(SC)=C(C#N)C(=O)c1ccccc1,active: 25.1 µM,
C(=C/c1ccccc1)/CN1CCN(C(c2ccccc2)c2ccccc2)CC1,,inactive: 19.1% [at 25.7 µM]
CN1CCc2cccc3c2C1Cc1ccc(O)c(O)c1-3 (stereo not drawn),,inactive: 11.7%
CS(=O)(=O)Nc1ccc([N+](=O)[O-])cc1Oc1ccccc1,inactive,
CCCCCCCCCCCCC/C=C\[C@@H](O)[C@@H](N)CO,,inactive: 0.759%
COC(=O)[C@@H]1C[C@@]2(O)[C@@H](O)[C@@H](O)[C@@H](O)C[C@H]2N1Cc1ccc(N2CCOCC2)cc1,,inactive: 1.75%

# Reference: PubChem BioAssay AID1454 (National Center for Advancing Translational Sciences (NCATS), 2008)
